Results as given in PubChem BioAssay AID493208 (National Center for Advancing Translational Sciences (NCATS), 2011).
Out of some 44,000 compounds screened, about 340 (0.77%) were called active. Another 5% or so got no clear call; they are omitted. Calls follow the shape of the dose curve; as a rule, active = well fitted inhibition curve with a large enough effect; inconclusive = small, poorly fitted or top-dose-only effect; inactive = flat fitted curve, though single readings scatter. Some of the results follow.

Experiment: Acumen qHTS Assay for Inhibitors of the mTORC1 Signaling Pathway in MEF (Tsc2-/-, p53-/-) Cells: Sytravon;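 also: plate controls were DMSO for no effect and rapamycin for full effect; nearly all actives have a fitted effect of over 50% in size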
Settings: phospho-rpS6 immunofluorescence/PI, 24 h; series mostly up to 38.3 µM; activity change, negative = inhibition: at the top concentration
Summary of the method: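 Compounds act on Tsc2-/-, p53-/- fibroblasts carrying an empty vector for 24 h before fixation and dual staining for phospho-S6 and DNA (propidium iodide). Values are percentages of cells above a rapamycin-defined pS6/PI threshold.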

| Structure (SMILES) | activity change, negative = inhibition |
| --- | --- |
| COc1ccccc1-c1nn2c(=O)cc(CN3CCN(C(=O)Nc4ccc(C)cc4Cl)CC3)nc2s1 | inactive: -1.23% |
| CCOc1ccc(-n2c(=O)c3c(C)c(C)sc3n(CC(=O)C(C)(C)C)c2=O)cc1 | inactive: -0.258% |
| Cc1cc(NS(=O)(=O)c2ccc(NC(=O)COc3c(C)ccc(C)c3C)cc2)nc(C)n1 | inactive: -3.35% |
| Cc1ccc(-n2c(=O)c3c(c4cc(C)ccc4n3C)n(CC(=O)Nc3ccc(F)cc3)c2=O)cc1 | inactive: 1.36% |
| CC(=O)c1ccc(N2CCN(C(=O)c3cn(C)c(=O)c4c3c3ccccc3n4C)CC2)cc1 | inactive: 0.748% |
| CCS(=O)(=O)N1CCc2cc(C(=O)Nc3ccc(Br)cc3F)ccc21 | inactive: -0.127% |
| COc1cc(C(=O)NCC(c2ccco2)S(=O)(=O)c2cccs2)cc(OC)c1OC (stereo not drawn) | inactive: 0.862% |
| CCc1cccc(C)c1NC(=O)c1ccc2c(c1)CCN2S(=O)(=O)c1ccc(Cl)cc1 | inactive: 6.36% |
| COc1ccc(CNC(=O)COCc2cc(-c3ccc4c(c3)OCO4)on2)cc1 | inactive: 0.141% |
| Cc1cc(C)cc(NC(=O)CCc2c(C)nc3nc(CNC(=O)c4cccc(F)c4)nn3c2C)c1 | inactive: -5.54% |
| COCCCNc1nc2c(c(=O)n(Cc3ccc(F)cc3)c(=O)n2C)n1C | inactive: 2.3% |
| CCCCC(=O)Nc1nnc(S(=O)(=O)N(C)Cc2ccc(Cl)cc2)s1 | inactive: -3.9% |
| COc1ccc(N(Cc2cccs2)C(=O)c2ccco2)cc1 | inactive: -8.93% |
| COc1ccc(OC)c(S(=O)(=O)NCC(c2ccc(N(C)C)cc2)N2CCOCC2)c1 (stereo not drawn) | inactive: 7.05% |
| COC(=O)c1cc(NC(=O)c2cc3c(-c4ccccc4F)nn(C)c3s2)cc(C(=O)OC)c1 | inactive: 5.88% |
| COc1ccc(N2CCN(S(=O)(=O)c3ccc(CC(C)C)cc3)CC2)cc1 | inactive: -0.655% |
| O=C(NCC(c1ccco1)S(=O)(=O)c1cccs1)c1ccccc1 (stereo not drawn) | inactive: -17.6% |
| Cc1c(Cl)cccc1Nc1nn2c(=O)c3ccccc3nc2s1 | inactive: -9.17% |
| COC(=O)c1cc2oc3ccccc3c2n1Cc1ccc(C)cc1 | inactive: -3.29% |
| CCOC(=O)c1cc2c(=O)n3ccccc3nc2n(Cc2ccco2)c1=NC(=O)c1ccccc1Br | inactive: 0% |
| CCOc1ccc(NC(=O)Cn2c(=O)n(CCCC(=O)NCCc3ccc(Cl)cc3)c(=O)c3ccccc32)cc1 | inactive: -0.0216% |
| Cc1ccccc1-c1noc(-c2ccc(NCC3CCCO3)c([N+](=O)[O-])c2)n1 (stereo not drawn) | inactive: 5.22% |
| COc1ccccc1CNC(=O)CC(c1ccc(F)cc1)N1Cc2ccccc2C1=O (stereo not drawn) | inactive: -14.2% |
| Cc1ccc(Cn2c(SCC(=O)NCc3ccccc3)nc3ccsc3c2=O)cc1 | inactive: -7.21% |

| Structure (SMILES) | activity change, negative = inhibition |
| --- | --- |
| Cc1cccc(N2CCN(S(=O)(=O)c3ccc(-c4cnc(C5CC5)o4)cc3)CC2)c1C | inactive: 0% |
| CCOC(=O)c1cccc(NC(=O)C(C)n2nc(C)c3c(C)n(-c4ccccc4)nc3c2=O)c1 (stereo not drawn) | inactive: -4.88% |
| Cc1ccc([N+](=O)[O-])cc1NC(=O)CN(c1ccccc1)S(=O)(=O)N(C)C | inactive: -3.82% |
| Cc1oc(-c2ccccc2F)nc1CS(=O)(=O)CC(=O)N1CCN(c2ccccc2)CC1 | inactive: 0.964% |
| COc1ccc(NC(=O)Cn2c(=O)n(CCc3ccccc3)c(=O)c3ccccc32)cc1 | inactive: 2.15% |
| COc1ccc2nc(NC(=O)c3cc(=O)c4ccccc4o3)sc2c1 | inactive: 2.45% |
| Cc1noc(-c2ccc(NCc3ccccc3)c([N+](=O)[O-])c2)n1 | inactive: 0.478% |
| COc1cccc(CNS(=O)(=O)c2cc3c(cc2C)n(C)c(=O)c(=O)n3C)c1 | inactive: 0.934% |
| O=C(c1cccc(Cl)c1)N1CCN(CCc2ccccn2)CC1 | inactive: 0.0346% |
| CCCCNC(=O)c1c(C)oc2ncn(CC(C)C)c(=O)c12 | inactive: -20.4% |
| CCOc1ccc(NC(=O)Cn2nc(-c3ccncc3)ccc2=O)cc1 | inactive: -1.43% |
| Cc1ccccc1OCC(=O)Nc1cc(-c2cccc(Br)c2)nn1-c1ccccc1 | inactive: 0% |
| O=C(NCc1nc2cccnc2n1Cc1ccc(F)cc1)c1ccccc1C(F)(F)F | inactive: -13.2% |
| COc1ccccc1CNCCSc1nnnn1C | inactive: -22.6% |
| Nc1c(-c2nc(-c3ccncc3)no2)nnn1CC(=O)Nc1ccccc1 | inactive: 0.113% |
| COc1ccc(C(=O)N(Cc2ccco2)Cc2ccco2)cc1 | inactive: -0.926% |
| COC(=O)c1c(N)n(-c2cc(Cl)cc(Cl)c2)c2nc3ccccc3nc12 | inactive: -3.97% |
| CCC(=O)N1CCc2cc(Br)cc(S(=O)(=O)N3CCCC(C(=O)NCc4ccccc4)C3)c21 (stereo not drawn) | inactive: -1.94% |
| Cc1ccccc1CN1C(=O)c2ccccc2Sc2ccc(C(=O)NCc3cccs3)cc21 | inactive: -3.16% |
| Cc1noc(/C=C/c2ccccc2F)c1S(=O)(=O)N1CCC(C(=O)N(C)Cc2ccco2)CC1 | inactive: -10.2% |
| COc1ccc(S(=O)(=O)NCC(c2ccco2)N2CCOCC2)cc1C (stereo not drawn) | inactive: -4.42% |
| COc1ccccc1N1CCN(S(=O)(=O)c2c(C)sc3ncn(CC(=O)Nc4ccccc4F)c(=O)c23)CC1 | inactive: -3.07% |
| CCOc1ccc(/C=C/c2nc3ccccc3n2S(=O)(=O)c2ccc(Br)cc2)cc1 | inactive: -1.89% |
| COc1cccc(NC(=O)Cn2c(=O)n(-c3ccc(Cl)cc3)c(=O)c3sc4ccccc4c32)c1 | inactive: -7.97% |
